Laboratory results taken from PMC4336329 (PLoS ONE, 2015).
In all, about 310,000 compounds went through this assay and about 2,200 (0.71%) showed an effect of 50% or more. Effects have a minus sign here. The list shows a part of the results.

Target: human ether-à-go-go-related gene (hERG) potassium channel (human, UniProt Q12809)
Assay: primary screen, population patch clamp on CHO cells stably expressing hERG

human ether-à-go-go-related gene (hERG) potassium channel, sequence (Q12809 whole entry, looked up): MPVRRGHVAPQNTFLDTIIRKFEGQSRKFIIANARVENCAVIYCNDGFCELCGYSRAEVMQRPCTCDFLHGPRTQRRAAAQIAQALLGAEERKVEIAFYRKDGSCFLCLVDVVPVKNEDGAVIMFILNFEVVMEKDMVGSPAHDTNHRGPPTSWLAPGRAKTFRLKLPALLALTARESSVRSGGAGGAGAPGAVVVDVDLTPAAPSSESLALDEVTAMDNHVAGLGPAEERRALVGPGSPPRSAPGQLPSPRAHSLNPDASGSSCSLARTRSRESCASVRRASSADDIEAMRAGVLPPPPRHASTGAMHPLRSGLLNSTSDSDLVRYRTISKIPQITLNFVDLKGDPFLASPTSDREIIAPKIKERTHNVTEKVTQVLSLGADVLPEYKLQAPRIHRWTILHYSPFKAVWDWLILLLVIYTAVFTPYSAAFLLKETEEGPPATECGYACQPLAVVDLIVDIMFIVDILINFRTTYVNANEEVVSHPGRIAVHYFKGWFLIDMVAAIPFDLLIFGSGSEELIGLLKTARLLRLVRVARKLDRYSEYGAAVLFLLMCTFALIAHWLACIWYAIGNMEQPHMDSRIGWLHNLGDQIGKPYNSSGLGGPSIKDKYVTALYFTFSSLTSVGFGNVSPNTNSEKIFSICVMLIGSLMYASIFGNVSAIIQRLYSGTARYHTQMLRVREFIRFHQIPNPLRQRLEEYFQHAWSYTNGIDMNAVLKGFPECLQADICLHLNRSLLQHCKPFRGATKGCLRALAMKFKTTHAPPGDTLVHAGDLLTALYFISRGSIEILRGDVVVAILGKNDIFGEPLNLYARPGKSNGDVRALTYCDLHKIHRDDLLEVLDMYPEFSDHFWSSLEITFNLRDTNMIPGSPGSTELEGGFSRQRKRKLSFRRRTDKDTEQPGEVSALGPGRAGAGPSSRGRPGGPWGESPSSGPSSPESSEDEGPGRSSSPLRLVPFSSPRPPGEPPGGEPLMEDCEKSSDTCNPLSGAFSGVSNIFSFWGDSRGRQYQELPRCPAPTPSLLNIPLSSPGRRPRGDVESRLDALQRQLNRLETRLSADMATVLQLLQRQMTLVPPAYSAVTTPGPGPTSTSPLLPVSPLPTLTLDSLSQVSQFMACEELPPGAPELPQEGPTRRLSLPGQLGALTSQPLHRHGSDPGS

Row | SMILES | hERG current change (%, negative = inhibition) at 1uM [%]
1 | COc1cc(Cl)ccc1OCc1cc(C(=O)N2CCN(C)CC2)no1 | 6.01
2 | CCCCc1nc2ccccc2c(=O)n1-c1ccc(O)cc1 | 5.23
3 | Cc1ccc(C)c(OCC(=O)NNC(=O)CSC(=S)N2CCCC2)c1 | 11.2
4 | CC#CCN1c2ccccc2[C@]23C[C@@H](C(=O)OC)N(C(=O)NC4CCCCC4)C2=NC(C(=O)OC)=C(C(=O)OC)[C@H]13 | 14.6
5 | Cc1cccc(C)c1NC(=S)N(CCN(C)C)C(C)c1ccccn1 (stereo not shown) | 9.46
6 | CCOc1ccc(C(=O)NCC(c2cccs2)N(C)C)cc1 (stereo not shown) | -9.71
7 | Cc1ccnc(NC(=O)CNC(=O)COc2ccccc2)c1 | 2.14
8 | CCCOc1ccc(-c2nc(C#N)c(N3CCC(C(N)=O)CC3)o2)cc1 | 2.52
9 | COc1ccc(Br)cc1C(=O)Nc1ccc(N2CCN(S(C)(=O)=O)CC2)cc1 | 10.5
10 | O=C(CSc1ncccn1)NCc1cccc(Cl)c1 | 5.65
11 | Cn1cc(Br)c(C(=O)N/N=C/c2cc3ccccc3nc2Cl)n1 | 8.63
12 | Cc1cc(NC(=O)Cn2ccc([N+](=O)[O-])n2)no1 | 16.2
13 | CCCc1nnc(NC(=O)Cn2c(=O)sc3ccccc32)s1 | 7.77
14 | COc1cc(-c2noc(C)c2C#Cc2ccccn2)cc(OC)c1OC | 13.6
15 | CCCSc1nnc2nc3c(nn12)c1ccccc1n3C | 4.67
16 | O=C(CSc1ncnc2nc[nH]c12)N1CCN(c2ccc(Cl)cc2)CC1 | 6.36
17 | CCC1SC(CC)C(=O)N(CC(=O)Nc2ccc3c(c2)OCO3)C1=O (stereo not shown) | 10.2
18 | CC(C)NC(=O)CCCN1C(=O)c2ccccc2Sc2ncccc21 | 21.2
19 | Cl.O=C(CCN1CCC(c2ccccc2)C1)c1ccc2c(c1)OCCO2 (stereo not shown) | -25
20 | O=C(COC(=O)CCc1c[nH]c(=O)[nH]1)Nc1ccccc1Cl | -0.63
21 | CC(O)CNCc1ccc(Cl)cc1Cl.Cl (stereo not shown) | 14.1
22 | O=C(/C=C/c1ccccc1)N/C(=C/c1ccccc1)C(=O)N1CCOCC1 | -15.8

Row | SMILES | hERG current change (%, negative = inhibition) at 1uM [%]
23 | O=C(Nc1ccncc1)c1cncc(Br)c1 | 12
24 | CCCCn1c(N)c(N(CC(C)C)C(=O)c2ccc(F)c(S(=O)(=O)N3CCOCC3)c2)c(=O)[nH]c1=O | 3.21
25 | COc1ccc(/C=N/NC(=O)CSc2nnc(CCCc3ccc(OC)c(C)c3)o2)cc1 | 6.57
26 | CC(=O)Nc1ccc(OS(=O)(=O)c2c(C)cc(C)cc2C)cc1 | 3.73
27 | N#Cc1c(NC(=O)C2CC(c3ccccc3Cl)=NO2)sc2c1CCC2 (stereo not shown) | 14.9
28 | O=C(NC1CCCCCC1)c1cc(-c2ccccn2)nc2ccccc12 | 9.3
29 | CN(CC(=O)Nc1cccc(F)c1)C(=O)c1ccc(C2SCCS2)cc1 | 18.9
30 | O=C(O)COc1ccc2oc3c(c2c1)CCCC3 | 10.6
31 | O=c1[nH]c(CSc2nnc(Nc3ccccc3)s2)nc2ccccc12 | 3.83
32 | COc1ccc(C(=O)NCC(=O)OCC(=O)NCCC2=CCCCC2)cc1 | 2.19
33 | O=C(Nc1cccc(F)c1)N1CCCC(CNS(=O)(=O)Cc2ccccc2)C1 (stereo not shown) | 2.98
34 | CC1CC(=O)N(CC(=O)Nc2ccc3c(c2)OCO3)c2ccccc2S1 (stereo not shown) | 3.42
35 | CC1SCC(=O)N(CC(=O)Nc2ccc3c(c2)OCO3)C1=O (stereo not shown) | 14.1
36 | COc1cc(OC)c(OC)cc1/C=N/NC(=S)NCC1CCCO1 (stereo not shown) | 10.5
37 | O=C(Nc1ccc([N+](=O)[O-])cc1)C1C(c2ccccc2)=C1c1ccccc1 | -4.83
38 | Cc1noc(C)c1S(=O)(=O)Nc1ccccc1OC(F)(F)F | 3.46
39 | COc1cccc(CSCC(=O)NCCc2ccccc2)c1OC | 8.85
40 | COc1ccccc1COC(=O)Nc1c(C)nn(C)c1Cl | 2.28
41 | CC(=O)Nc1ccc(NC(=O)/C=C/c2ccc(Cl)cc2)cc1 | 5.22
42 | Cc1ccc(-n2c(O)c(C=NCCCn3ccnc3)c(=O)[nH]c2=O)cc1 | 11.9
43 | Cc1ccc(CCNC(=O)C2CCCN(S(C)(=O)=O)C2)cc1 (stereo not shown) | 13
44 | CC(=O)Nc1cccc(NC(=O)CCc2ccccc2)c1 | 8.4

Row | SMILES | hERG current change (%, negative = inhibition) at 1uM [%]
45 | CCOC(=O)N1CCN(C(=O)CSc2ccc(-c3cccnc3)nn2)CC1 | 14.9
46 | Cc1cnc(NC(=O)CCNC(=O)c2ccc([N+](=O)[O-])cc2)s1 | 7.22
47 | COc1cccc(C(C(=O)NC(C)(C)C)N(CCC(C)C)C(=O)CCC(=O)Nc2cc(C)on2)c1OC (stereo not shown) | 6.26
48 | COc1ccc(/C=N/NC(=O)c2cccnc2)cc1Cn1nc([N+](=O)[O-])c(Br)c1C | 3.02
49 | CCOC(=O)Cc1[nH]nc2c1C(Cc1ccccc1)C(C#N)=C(N)O2 (stereo not shown) | 9.9
50 | Cc1nc(NC(=O)c2cc3ccccc3o2)ccc1Br | 10.2
51 | Cc1ccsc1C(=O)OC1CCOC1=O (stereo not shown) | 9.59
52 | COc1cc(C(=O)Nc2ccc(C)cn2)ccc1OCC(=O)N1CCOCC1 | 1.73
53 | Cc1ccc(S(=O)(=O)CCC(=O)NCc2ccccc2Cl)cc1 | 8.74
54 | CCOC(=O)c1ccc(Nc2cc(C)nc(-c3ccccc3)n2)cc1 | 7
55 | COc1ccc(N(CC(=O)NC(C)(C)C)C(=O)CCC(=O)Nc2nccs2)c(OC)c1 | 12.3
56 | COC(=O)C1Sc2[nH]c(=O)sc2C(c2ccc(Cl)cc2)C1C(=O)OC (stereo not shown) | -20.6
57 | CCN(C(=O)/C=C/c1ccccc1)C1CCCCC1 | 13.6
58 | NS(=O)(=O)c1ccc(CCNC(=O)Cc2ccc(S(=O)(=O)N3CCOCC3)s2)cc1 | 9.98
59 | Cc1ccnc(N2CCC(C(=O)Nc3ccc4c(c3)CCC4)CC2)n1 | 19.7
60 | CC(C)c1ccc(C2C3=C(CC(C)(C)CC3=O)NC3=C2C(=O)c2ccccc23)cc1 (stereo not shown) | 11.1
61 | Cc1cc([N+](=O)[O-])nn1CC(=O)N1N=C(C(F)F)CC1(O)C(F)F (stereo not shown) | 14.9
62 | CC12COC3(C(N)=O)CC1CCC32C (stereo not shown) | -1.02
63 | COc1ccc2[nH]cc(C(=O)CCl)c2c1 | 11
64 | Cc1ccc(NC(=O)CN(C)C(=O)c2cccc(S(=O)(=O)N3CCc4ccccc43)c2)cc1 | 6.51
65 | COc1ccc(/C=C/c2ccccc2)cc1[C@H]1[C@H]2C=CC[C@@H](C)[C@@H]2C(=O)N1Cc1ccccc1 | 16.8
66 | Cc1ccccc1N1CCN(C2CCCN(C(=O)c3ccsc3)C2)CC1 (stereo not shown) | -9.94

Row | SMILES | hERG current change (%, negative = inhibition) at 1uM [%]
67 | COc1ccc(N2CCN(CCS(=O)(=O)c3cc(Cl)ccc3Cl)CC2)cc1 | 1.6
68 | COCCNC(=O)c1cc(S(=O)(=O)N2CCOCC2)ccc1SCc1cccc(OC)c1OC | 5.16
69 | Cc1ccc(NC2CCCN(C(=O)CCN3CCCCO3)C2)cc1C (stereo not shown) | 6.44
70 | CC1(C)Cc2c(sc(NC(=O)c3ccc4c(c3)OCCO4)c2C(N)=O)C(C)(C)N1 | 8.57
71 | O=C1C2(CCCC13COC(c1ccc(O)cc1)OC3)COC(c1ccc(O)cc1)OC2 (stereo not shown) | 14.1
72 | Cc1ccccc1Nc1c(-c2ccc(N3CCOCC3)cc2)nc2cnccn12 | 13.5
73 | COc1ccc(-n2nc3c(N4CCC(C(=O)N5CCCCCC5)CC4)nnc(C)c3c2C)cc1 | 0.592
74 | COc1ccc(Cl)cc1NC(=S)NCCO | 11.6
75 | Cc1ccc(Cl)cc1N1CCN(C(=O)COc2ccc3c(c2)CCC3)CC1 | 11.3
76 | CSc1nc(C)cc(/C=C\c2ccccc2)c1C#N | 7.95
77 | Cc1cc(NC(=O)C2CCCCC2C(=O)O)ccc1NC(=O)c1ccccc1 (stereo not shown) | 0.369
78 | Cn1c(=O)[nH]c(=O)c2c1nc(NCCO)n2CCOc1ccccc1 | 8.91
79 | Nc1nc(SCC(=O)N2CCN(S(=O)(=O)c3ccc(Cl)cc3)CC2)n[nH]1 | 19.1
80 | COc1nc(Oc2ccc(C(=O)OCC(N)=O)cc2)nc(N(C)C)n1 | 12.2
81 | O=C(CCCN1C(=O)c2ccccc2C1=O)Nc1ccc(S(=O)(=O)N2CCCCC2)cc1 | -3.33
82 | CN1C(CC(O)c2ccccc2)CCCC1CC(O)c1ccccc1.Cl (stereo not shown) | -46.3
83 | Cc1ccc(C)c(S(=O)(=O)N2CCN(C(=O)CNC(=O)c3ccc4ccccc4c3)CC2)c1 | 7.43
84 | CC(C)(C)c1ccc(/C=N/NC(=O)C[n+]2ccccc2)cc1.[Cl-] | 11.9
85 | CC1(C)OC(=O)C(=CNCCc2ccc(O)cc2)C(=O)O1 | 18.5
86 | CC(=O)NC(Cc1c[nH]c2ccccc12)C(=O)OCC(=O)Nc1ccc2c(c1)OCO2 (stereo not shown) | 12.4
87 | Cc1ccc2nc(N3CCC(C(=O)N4CCC5(CC4)OCCO5)CC3)sc2c1 | -0.516
88 | CCCCN(C)S(=O)(=O)c1ccc(C(=O)N=c2sc3cc(NC(C)=O)ccc3n2C)cc1 | 13.8
